These results are taken from patent publication US20170095573A1, “METHODS AND COMPOSITIONS FOR TREATING ALLERGY AND INFLAMMATORY DISEASES” (Baylor Research Institute, priority 2014, published 2017).

The assay has as its system blood mDCs. As to the kind of experiment: TSLP-induced OX40L and CD86 expression on mDCs. To be noted: mDCs cultured with TSLP; 20 ng/mL TSLP, 10 μg/mL conjugate or antibody, 100 ng/mL pam3, 48 hours in Example 6. As for the experimental part: (FIG. 4A) mDC staining and (FIG. 4B) compiled results.
Allergens and respiratory viruses induce epithelial cells to secrete TSLP that can upregulate OX40L expression on DCs. OX40L play a pivotal role in the DC-induced elicitation of allergic Th2 type inflammatory T cell responses. Thus, it was tested whether anti-Dectin-1-Pam3 could suppress the TSLP-induced OX40L expression on mDCs (FIG. 4).
Next, mDCs were first purified from a buffy coat then cultured with 20 ng/mL TSLP and either 100 ng/mL pam3, 10 μg/mL of anti-dectin-1 or 10 μg/mL of αDectin-1-pam3. Cells were harvested and stained after 48 hours.

On to `CCCCCCCCCCCCCCCC(=O)N[C@@H](CSCC(COC(=O)CCCCCCCCCCCCCCC)OC(=O)CCCCCCCCCCCCCCC)C(=O)N[C@@H](CO)C(=O)N[C@@H](CCCCN)C(=O)N[C@@H](CCCCN)C(=O)N[C@@H](CCCCN)C(=O)N[C@@H](CCCCN)C(=O)O` (mixture of isomers) [Pam3, N-Palmitoyl-S-[2,3-bis(palmitoyloxy)-(2RS)-propyl]-[R]-cysteinyl-[S]-seryl-[S]-lysyl-[S]-lysyl-[S]-lysyl-[S]-lysine], for which the “TSLP-induced OX40L expression on mDCs” value is recorded as “could not alter the TSLP-induced OX40L expression”.
